# The other results are listed elsewhere or left out. Values come from read counts of a selection and are noisy. Scores sum up all selected molecules that hold the word; the word was not tested alone.
# Tested on: IMP3 KH1-4
# Assay: 6-mer SELEX enrichment z-score vs GST control; IMP3 is the RNA-binding protein IGF2BP3; higher = more enriched by binding
# Conditions: construct: KH1-4 (164-579); SELEX round: R4
# Protocol: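 SELEX-seq with GST-tagged IMP3 KH1-4 (Pro164-Lys579) and an N40 RNA pool, round 4. 6-mer z-score of sequence-tag enrichment normalised to the corresponding GST SELEX round; RNA k-mers written as DNA (T for U).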
# Chain of IMP3 KH1-4 (chain, as listed by the source): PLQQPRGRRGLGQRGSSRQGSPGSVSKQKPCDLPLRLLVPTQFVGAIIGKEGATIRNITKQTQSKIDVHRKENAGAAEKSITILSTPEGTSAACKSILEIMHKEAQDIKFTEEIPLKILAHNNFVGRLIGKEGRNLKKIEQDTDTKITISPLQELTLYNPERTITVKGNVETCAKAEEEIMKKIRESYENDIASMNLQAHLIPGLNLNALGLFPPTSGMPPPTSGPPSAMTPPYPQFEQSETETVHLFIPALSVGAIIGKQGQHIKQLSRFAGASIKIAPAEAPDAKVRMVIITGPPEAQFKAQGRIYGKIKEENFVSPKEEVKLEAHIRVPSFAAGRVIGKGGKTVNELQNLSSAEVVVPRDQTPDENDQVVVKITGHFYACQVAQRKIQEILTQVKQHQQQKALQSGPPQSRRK
row,Sequence,6-mer SELEX enrichment z-score
1,GGGTTA,0.121
2,TATTGG,0.269
3,ATGTTA,0.509
4,AGGGTA,-0.209
5,TCACTT,0.982
6,TACAGT,0.889
7,CGACAT,-0.128
8,AGTATT,0.149
9,CCTTGG,-0.562
10,TCTGCC,-0.202
11,AGTAGA,-0.1
12,GTACCG,-0.925
13,ATACCG,-0.01
14,CCAGTT,0.185
15,TTCCGT,0.532
16,ACCCCT,-0.5
17,TCTCGC,-0.561
18,GATAAC,0.639
19,CGATCT,-0.572
20,CTGCCA,0.297

row,Sequence,6-mer SELEX enrichment z-score
1,ACACTG,1.2
2,GTTCAA,-0.004
3,TGTGTC,-0.127
4,GTAAAA,-0.681
5,GCGATA,-0.247
6,CGTTCC,-0.307
7,CGTTAC,-0.275
8,TCTCAC,0.043
9,TATCCC,-0.558
10,AGTGCC,-0.978
11,CATGCC,-0.281
12,ATCGTG,-0.534
13,GCGTGG,-2.04
14,CGGATG,0.137
15,ACAGAG,-0.304
16,TGCGAA,-0.799
17,ATAAGC,0.224
18,CACAAC,1.03
19,ATCCTA,-0.114
20,GCTTTA,0.392

# Molecular target: IMP3 full-length (UniProt O00425)
# Chain of UniProt O00425 (O00425 whole entry): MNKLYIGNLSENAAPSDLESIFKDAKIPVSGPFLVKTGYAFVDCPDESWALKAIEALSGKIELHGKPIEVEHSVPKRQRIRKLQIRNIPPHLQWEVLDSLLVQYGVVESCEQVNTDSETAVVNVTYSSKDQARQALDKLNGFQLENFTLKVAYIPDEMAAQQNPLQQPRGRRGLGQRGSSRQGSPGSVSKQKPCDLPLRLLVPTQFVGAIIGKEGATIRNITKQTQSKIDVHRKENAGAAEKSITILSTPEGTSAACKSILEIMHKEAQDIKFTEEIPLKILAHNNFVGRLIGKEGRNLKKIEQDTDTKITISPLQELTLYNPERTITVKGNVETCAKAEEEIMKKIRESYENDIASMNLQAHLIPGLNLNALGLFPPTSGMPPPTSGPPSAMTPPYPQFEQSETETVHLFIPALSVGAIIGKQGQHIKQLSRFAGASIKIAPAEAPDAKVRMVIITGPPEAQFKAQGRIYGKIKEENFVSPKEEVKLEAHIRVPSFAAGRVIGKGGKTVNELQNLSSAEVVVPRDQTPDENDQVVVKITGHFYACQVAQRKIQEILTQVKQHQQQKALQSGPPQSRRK
# Assay: as above
# Conditions: construct: FL IMP3 (1-579); SELEX round: R4
# Protocol: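 SELEX-seq with GST-tagged full-length IMP3 and an N40 RNA pool, round 4. Each 6-mer is scored as an enrichment z-score of sequence tags containing it, normalised to the matching GST SELEX round. RNA written as DNA (T = U).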
row,Sequence,6-mer SELEX enrichment z-score
1,GGGTTA,0.205
2,TATTGG,0.171
3,ATGTTA,-0.117
4,AGGGTA,0.009
5,TCACTT,0.801
6,TACAGT,0.72
7,CGACAT,0.567
8,AGTATT,-0.054
9,CCTTGG,-0.103
10,TCTGCC,-0.178
11,AGTAGA,-0.368
12,GTACCG,-0.103
13,ATACCG,-0.146
14,CCAGTT,0.058
15,TTCCGT,0.256
16,ACCCCT,-0.821
17,TCTCGC,0.218
18,GATAAC,-0.355
19,CGATCT,-0.181
20,CTGCCA,0.005

row,Sequence,6-mer SELEX enrichment z-score
1,ACACTG,1.01
2,GTTCAA,0.25
3,TGTGTC,0.021
4,GTAAAA,-1.55
5,GCGATA,-0.138
6,CGTTCC,-0.137
7,CGTTAC,-0.091
8,TCTCAC,0.273
9,TATCCC,-0.908
10,AGTGCC,-0.359
11,CATGCC,0.115
12,ATCGTG,-0.279
13,GCGTGG,-1.05
14,CGGATG,0.064
15,ACAGAG,0.78
16,TGCGAA,-0.789
17,ATAAGC,-0.139
18,CACAAC,2.1
19,ATCCTA,-0.463
20,GCTTTA,0.01

# — the supplement of paper PMC6531468
